Among all 48,000 compounds or so, about 550 (1.1%) were called active. Another 4% or so got no clear call; they are omitted. Rule as the data show it: active = potency below about 15 µM; inconclusive = mostly about 16 µM to 33 µM; inactive = weaker than that. This is one part of the list.
Each molecule was assayed against Lysosomal acid glucosylceramidase (Homo sapiens) (UniProt P04062) (assay: Glucocerebrosidase). Conditions: purified enzyme, resorufin glucoside fluorescence (screen aimed at inhibitors), 20 min; series mostly up to 77 µM.
Summary of the method: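 Wild-type enzyme at 0.2 nM final in 50mM citric acid/KH2PO4, 10mM sodium taurocholate, 0.01% tween-20, pH 5.9, with resorufin beta-D-glucopyranoside at 30 uM final. Compounds titrated, 20 min at RT, red fluorescence read; AC50 from titration.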
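Also: the screen sought inhibitors.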
Potency is read from the fitted curve at half-maximal effect.

Sequence of UniProt P04062 (P04062 whole entry, looked up): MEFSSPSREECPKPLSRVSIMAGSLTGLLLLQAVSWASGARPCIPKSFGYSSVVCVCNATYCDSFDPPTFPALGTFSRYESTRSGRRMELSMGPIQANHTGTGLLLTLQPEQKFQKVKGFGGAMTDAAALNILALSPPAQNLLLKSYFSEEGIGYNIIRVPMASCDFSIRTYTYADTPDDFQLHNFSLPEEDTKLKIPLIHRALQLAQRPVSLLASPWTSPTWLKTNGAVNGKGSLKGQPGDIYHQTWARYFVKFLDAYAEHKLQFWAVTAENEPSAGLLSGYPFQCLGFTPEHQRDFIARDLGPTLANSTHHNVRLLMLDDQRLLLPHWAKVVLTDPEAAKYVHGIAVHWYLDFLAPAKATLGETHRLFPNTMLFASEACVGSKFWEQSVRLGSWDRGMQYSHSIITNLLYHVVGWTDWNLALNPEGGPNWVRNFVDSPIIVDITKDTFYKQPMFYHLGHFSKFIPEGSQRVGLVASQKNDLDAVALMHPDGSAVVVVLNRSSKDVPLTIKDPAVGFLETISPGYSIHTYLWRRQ

Potency, inactive:
O=C(NCc1ccccc1Br)c1ccco1 > 76.9 µM
COc1c(C)cccc1C(=O)Nc1ccc(N2CCN(S(C)(=O)=O)CC2)cc1 > 76.9 µM
CCc1ccccc1NC(=O)C1CCCN(S(=O)(=O)c2c(C)noc2C)C1 (stereo unspecified) > 76.9 µM
CCC(=O)NCCSc1c[nH]c2ccccc12 > 76.9 µM
O=C(C1=COCCO1)N1CCN(C(c2ccccc2)c2ccccc2)CC1 > 76.9 µM
CCOC(=O)c1cccnc1SCC(=O)NC(C)CC (stereo unspecified) > 76.9 µM
COCC(=O)N(C)C1(c2nnnn2CCOC(=O)Nc2ccc(Cl)cc2)CCCC1 > 76.9 µM
OCCN1CCN(c2ncnc3c2sc2nc(N4CCOCC4)c4c(c23)CCC4)CC1 > 76.9 µM
CCN(CC)CCCNc1nnc(C)c(=O)[nH]1 > 76.9 µM
CCC1Oc2ccc(C)cc2N(CC(=O)NCCN2C(C)CCCC2C)C1=O (stereo unspecified) > 76.9 µM
CCC1CCc2sc(C(=O)O)cc2C1 (stereo unspecified) > 76.9 µM
COc1cc(C2C(C(=O)c3ccc(C)o3)=C(O)C(=O)N2c2cc(C)on2)ccc1O (stereo unspecified) > 76.9 µM
Cc1ccc(OCC(=O)N2CCN(C(=O)CCC3CCCC3)CC2)cc1 > 76.9 µM
Cc1nn(-c2ccc3nnc(Br)n3n2)c(C)c1Br > 76.9 µM
CC(C)CC(=O)Nc1ccccc1N1CCOCC1 > 76.9 µM
CCSc1nc2cc(OC)c(OC)cc2c(=O)n1CC > 76.9 µM
CCOC(=O)C1C(=O)NC(N2CCN(Cc3ccccc3)CC2)=NC1c1ccco1 (stereo unspecified) > 76.9 µM
CCCC(c1nnnn1C1CCCC1)N1CCN(c2ccccc2F)CC1 (stereo unspecified) > 76.9 µM
O=C(CN(CC1CCCO1)C(=O)CNS(=O)(=O)c1ccccc1)NCc1ccccc1 (stereo unspecified) > 76.9 µM
COc1cccc(NC(=O)C2CCCN2C(=O)Nc2cccc(F)c2)c1 (stereo unspecified) > 76.9 µM
Cc1csc(SCC(=O)Nc2c(C)n(C)n(-c3ccccc3)c2=O)n1 > 76.9 µM
Cn1c(=O)c2c(nc(SCCCO)n2Cc2ccccc2Cl)n(C)c1=O > 76.9 µM
O=C(O)CCSCC(=O)c1ccc2c(c1)OCCO2 > 76.9 µM
CCCN(CCC)CCCNC(=O)CC(C(=O)N1CCc2ccccc21)n1ccnc1 (stereo unspecified) > 76.9 µM
CSc1ccc(Cl)c(C(=O)OCC(=O)N2CC(C)OC(C)C2)c1 (stereo unspecified) > 76.9 µM
O=C(Nc1ccc(C(=O)N2CCCC2)cc1)c1ccccc1F > 76.9 µM
Cc1ccc2c(c1)N(CCC(=O)NCc1ccc3c(c1)OCO3)C(=O)CO2 > 76.9 µM
CN1CCN(S(=O)(=O)c2ccc(=O)[nH]c2)CC1 > 76.9 µM
Cc1csc(SCC(=O)N2CCN(S(=O)(=O)c3ccccc3)CC2)n1 > 76.9 µM
COC(=O)c1c(C(=O)OC)c2cc(C)ccn2c1Cl > 76.9 µM
COc1ccc(C2C3=C(CC(C)(C)CC3=O)Nc3c2c(=O)[nH]c2nc(C)nn32)cc1 (stereo unspecified) > 76.9 µM
O=C(c1ccc2c(=O)n(CC3CCCO3)c(=S)[nH]c2c1)N1CCN(c2ccccc2)CC1 (stereo unspecified) > 76.9 µM
CCOCC(=O)Nc1ccc(S(=O)(=O)Nc2ncccn2)cc1 > 76.9 µM
COc1ccccc1COCC(O)CNCC1(N2CCCCC2)CCCCC1 (stereo unspecified) > 76.9 µM
CCc1ccc(-c2nc(CN3CCC(C(=O)NCc4ccco4)CC3)c(C)o2)cc1 > 76.9 µM
CCN1CCN(c2nc(-c3cccnc3)nc3ccccc23)CC1 > 76.9 µM
O=C(COC(=O)Cc1cccs1)Nc1ccccc1 > 76.9 µM
Cc1ccc2cccc(S(=O)(=O)N3CCN(c4cccc(Cl)c4)CC3)c2n1 > 76.9 µM
CC(C)Oc1ccc2nnnn2n1 > 76.9 µM
CCOCCCN1C(=O)CN(C2CCCCC2)C(=O)C1c1ccc(OCC)c(OC)c1 (stereo unspecified) > 76.9 µM
CCOC(=O)COn1c(=O)c[n+]([O-])c2ccccc21 > 76.9 µM
Cc1ccc(C(=O)Nc2ccccc2C(N)=O)o1 > 76.9 µM
COC(=O)c1sc(N)c(C(=O)OC)c1CSc1nnnn1C > 76.9 µM
O=c1cc(CN2CCN(c3ccccc3)CC2)c2cc(O)c(-c3ccccc3)cc2o1 > 76.9 µM
O=C(CCn1c(=O)oc2ccccc21)NCCN1CCc2ccccc2C1 > 76.9 µM
CCOc1ccc(C2/C(=C(/O)c3ccccc3)C(=O)C(=O)N2CCCN(C)C)cc1OC (stereo unspecified) > 76.9 µM
Cc1nc(N2CCN(Cc3ccccc3)CC2)nc2c1C(=O)CC(C)C2 (stereo unspecified) > 76.9 µM
CCOC(=O)c1ccccc1NC(=O)c1ccccc1SC > 76.9 µM
CCN(CC)C(=O)CN1C(=O)C2CC=C(Cl)CC2C1=O (stereo unspecified) > 76.9 µM
O=C(NCC1CCCO1)c1ccc(Cl)c(F)c1F (stereo unspecified) > 76.9 µM
Cc1cccc(C(=O)OCC(=O)Nc2ccc(N3CCCCC3)cc2)c1O > 76.9 µM
CN(C)c1cccc(C(=O)NC2CCCCCC2)c1 > 76.9 µM
CC(=O)c1cc(F)c(N2CCN(C(=O)c3ccco3)CC2)cc1C > 76.9 µM
O=C(c1cnn2c(C(F)(F)F)cc(-c3ccc4c(c3)OCO4)nc12)N1CCCCC1 > 76.9 µM
CCCOC(=O)NC1C(NC(=O)OCCC)N(C)C(=O)N1C (stereo unspecified) > 76.9 µM
COC(=O)c1ccc2c(=O)n(CCC3=CCCCC3)c(SCC(=O)N3CCCC3)nc2c1 > 76.9 µM
CN(C(=O)c1ccccc1)C1(C)CCS(=O)(=O)C1 (stereo unspecified) > 76.9 µM
COCCNC(=O)C(C#N)c1nc2ccccc2nc1N1CCCCCC1 (stereo unspecified) > 76.9 µM
CCOC(=O)c1nn(-c2ccc(OC)cc2)c(=O)c2c(NC(=O)c3ccco3)scc12 > 76.9 µM
CC(C)(C)OC(=O)N1CCN(c2ccc(NC(=O)c3cc4ccccc4oc3=O)cc2)CC1 > 76.9 µM
CCOc1nc(C)ccc1-c1noc(-c2ccccc2OC)n1 > 76.9 µM
COc1ccc(-n2c(C)nc3c(cnn3-c3ccc(Cl)cc3)c2=O)cc1 > 76.9 µM
COc1ccc(NC(=O)CCNC(=O)Cn2ccc3ccccc3c2=O)c(OC)c1 > 76.9 µM
O=C(CCCn1c(SCC(=O)NCC2CCCO2)nc2ccccc2c1=O)NCC1CCCO1 (stereo unspecified) > 76.9 µM
CC(=O)C1C(=O)C=C(c2ccco2)CC1c1ccccc1 (stereo unspecified) > 76.9 µM
O=C(Nc1ncccn1)C1CCCN1S(=O)(=O)c1ccc(Cl)c(Cl)c1 (stereo unspecified) > 76.9 µM
COc1ccc(OC)c(S(N)(=O)=O)c1 > 76.9 µM
O=C1CC(c2nc3ccccc3[nH]2)CN1c1ccccc1 (stereo unspecified) > 76.9 µM
c1ccc(COc2ccc(OCCOCCn3cncn3)cc2)cc1 > 76.9 µM
COc1cc(C2CC(=O)c3cnc(NC(=O)COc4ccccc4)nc3C2)cc(OC)c1OC (stereo unspecified) > 76.9 µM
O=C(CN1CCOCC1)N1CCN(c2nnc(-c3ccccc3)c3ccccc23)CC1 > 76.9 µM
COc1cc(NS(C)(=O)=O)c(OC)cc1NC(=O)c1cccc(F)c1 > 76.9 µM
CCCS(=O)(=O)c1cn2cccc(N)c2c1S(=O)(=O)CCC > 76.9 µM
Cn1c(=O)c2sccc2n2c(CCCC(=O)NCc3ccc4c(c3)OCO4)nnc12 > 76.9 µM
Cc1ccc(S(=O)(=O)N2CCOCC2)cc1C(=O)NCc1cn2ccsc2n1 > 76.9 µM
Cc1ccccc1NC1=NC(C)(C)N=C(N)N1 > 76.9 µM
Cc1ccc(/C=c2\sc3nc(-c4cccs4)nn3c2=O)o1 > 76.9 µM
Cn1c(=O)c2ncn(CC(=O)Nc3ccc4c5c(cccc35)CC4)c2n(C)c1=O > 76.9 µM
N#Cc1c(/N=C/c2cccs2)sc2c1CCCCC2 > 76.9 µM
Cc1ccc(-c2csc(NC(=O)c3ccno3)n2)cc1 > 76.9 µM
c1ccc(-c2nc(-c3ccco3)cs2)nc1 > 76.9 µM
Cc1nn(Cc2ccccc2)c(C)c1NC(=O)CCC(=O)O > 76.9 µM
COC(=O)CCn1nnc(-c2ccc(C(C)C)cc2)n1 > 76.9 µM
CCn1c(COc2ccccc2)nnc1SCC(=O)CC(=O)Nc1ccccc1OC > 76.9 µM
O=C(CCc1nc(-c2ccccc2F)no1)NC1CCN(Cc2ccccc2)CC1 > 76.9 µM
CCCCn1c(NCCN(C)C)nc2c1c(=O)[nH]c(=O)n2C > 76.9 µM
O=C(CN1C(=O)c2cccc3cccc1c23)NCC1CCCO1 (stereo unspecified) > 76.9 µM
CC1(C)CC(=O)C2=C(C1)NC(Nc1nc3ccccc3o1)=NC21CCCCC1 > 76.9 µM
O=C(O)C1CCN(C(=O)COc2ccc3c4c(c(=O)oc3c2)CCC4)CC1 > 76.9 µM
CC1CCCCC1NC(=O)Cn1nc(-c2ccccc2)ccc1=O (stereo unspecified) > 76.9 µM
N=C1C(c2nc(-c3ccc(F)cc3)cs2)=C(O)CN1CCCN1CCOCC1 > 76.9 µM

From PubChem BioAssay AID360 (National Center for Advancing Translational Sciences (NCATS), 2006)
